Experimental data reported in PubChem BioAssay AID588501 (NMMLSC, 2011).
Screen size: about 360,000 compounds; about 420 (0.12%) were called active. The shares of active, inactive and inconclusive entries below differ from those in the screen. Cut-off read from the data, not from the text of the source: active = inhibition above about 30%; inconclusive = no clear call, values can overlap the other calls; inactive = below that.

Biological target: Lethal factor (Bacillus anthracis) (UniProt P15917)
Test: anthrax lethal factor cleavage blockers – biochemical, multiplex microsphere, MLPCN library, primary screen (AID 588501); note: plate controls were buffer without enzyme for full effect and enzyme alone for no effect
Conditions: multiplex microsphere protease cleavage assay, LF; at 10 µM; active compounds read high

| Structure (SMILES) | inhibition |
| --- | --- |
| COc1cc(NC(=O)C2CC2)c(C(=O)O)cc1OC | inconclusive: 16.2% |
| CC(C)N(C(=O)CSc1ccc(S(=O)(=O)N2CCCCC2)cn1)C(C)C | inconclusive: 7.2% |
| Cc1sc2ncnc(N3CCC(C(=O)Nc4ccc(Br)cc4Br)CC3)c2c1C | inconclusive: -2.1% |
| O=C(NCC(c1ccco1)N1CCc2ccccc21)c1ccccc1F (stereo not given) | inconclusive: -2.9% |
| CC(=O)N1c2ccc(S(=O)(=O)N3CCCCC3)cc2CC1C(=O)Nc1ccc(F)cc1C (stereo not given) | inconclusive: 1.9% |
| CCCCN(CCCNC(=O)CN1C(=O)COc2ccccc21)c1ccccc1 | inconclusive: 4.3% |
| COc1ccc(Nc2nnc(-c3ccc(C(=O)NCCO)cc3)c3ccccc23)cc1 | inconclusive: 2.3% |
| Cc1ccc(SCc2cc(=O)[nH]c(Nc3nc(C)c4cccc(C)c4n3)n2)cc1 | inactive: -1.9% |
| CCc1ccc(-c2cn3nc(C)c(C)nc3n2)cc1 | inconclusive: -6.1% |
| COc1cccc(/C=N/NC(=O)c2ccoc2C)c1 | inconclusive: -0.4% |
| Cc1cc(C(=O)Nc2cc(C(C)(C)C)on2)c(C)o1 | active: 100% |
| Cn1c(=O)[nH]c(=O)c2c1nc(N/N=C/c1ccncc1)n2Cc1ccc(F)cc1 | inconclusive: -14.3% |
| Cc1ccc(NC(=O)CN(C)C(=O)c2ccccc2OCc2c(C)noc2C)cc1 | inconclusive: -0.2% |
| O=C(O)CCC(=O)N1CCC(n2nnc3cc(C(F)(F)F)ccc32)CC1 | inconclusive: 4.1% |
| CC(C)CN(CC(C)C)c1nc(N)c(C#N)c(CC#N)c1C#N | inactive: -8.6% |
| CC(CC1CC(C)(C)OC1=O)C(=O)Nc1nncs1 (stereo not given) | inactive: -4.3% |
| c1ccc2c(c1)CCN2CCN1CCc2ccccc21 | inconclusive: -14.9% |
| COc1ccc(-c2nc(CS(=O)CC(=O)NCCCN3CCOCC3)c(C)o2)cc1OC (stereo not given) | inactive: -4.1% |
| COC(=O)c1ccc(NC(=O)CSc2nnc(-c3ccncc3)n2C)cc1 | inconclusive: -11.3% |
| COc1cccc2c(=O)c(C(=O)NCCc3ccccc3)c[nH]c12 | inactive: 7.6% |

| Structure (SMILES) | inhibition |
| --- | --- |
| CC(=NNC(=S)N(Cc1ccccn1)Cc1ccccn1)c1cnccn1 | active: 40% |
| Cc1ccc(C(=O)Nc2cccc(-c3ccc(N4CCOCC4)nn3)c2)cc1C | inconclusive: -5.5% |
| Cc1ccc(C(=O)COC(=O)c2cccc(NC(=O)c3ccc([N+](=O)[O-])cc3[N+](=O)[O-])c2)cc1 | inconclusive: 7.3% |
| O=C(OC1CC2CC1[C@H]1CCCCN1C2=O)N1CCN(S(=O)(=O)c2ccccc2)CC1 (stereo not given in full) | inactive: -9.3% |
| Cc1nc2c(-c3ccccc3)c(C)nn2c(C)c1CCC(=O)N1CCC2(CC1)OCCO2 | inconclusive: -3.1% |
| CC/C(=N\NC(N)=O)c1ccc(OC)c(OC)c1 | inconclusive: 12.6% |
| O=C(Nc1ccccc1)C1CCN(c2nccs2)CC1 | active: 40.5% |
| CC(O)CNC1c2ccccc2CC1O (stereo not given) | inactive: 0.7% |
| Nc1ccc(N2CCN(C(=O)c3ccco3)CC2)cc1 | inactive: -4.3% |
| CCOC(=O)Cn1cnc2scc(-c3ccc(C)cc3)c2c1=O | inactive: -1.7% |
| CC(=NNc1nc2ccccc2o1)c1cc2ccccc2cn1 | active: 58.9% |
| CCOC(=O)c1nn(-c2ccc(Br)cc2)cc1C(=O)c1cccc2ccccc12 | inactive: 2.1% |
| CC(=O)NNC(=O)c1cc2c3ccccc3n(C)c2s1 | inactive: -8% |
| CNC(=O)COc1ccc(Nc2nnc(C)c3ccccc23)cc1 | inconclusive: 6.3% |
| COc1ccc(OCC(=O)N2CCN(C(=O)Cc3ccccc3)CC2)cc1 | inconclusive: 32.5% |
| CN(C)CCCNC(=O)c1cc2c3ccccc3n(C)c2s1 | inconclusive: -13.5% |
| O=C(NCCC1CCCC1)c1cccs1 | active: 31.2% |
| O=C(CSc1nncs1)NCCNC(=O)CSc1nncs1 | inconclusive: -6% |
| CCOc1cc(C2NC(=O)NC(O)(C(F)(F)F)C2C(=O)c2ccccc2)ccc1OC (stereo not given) | inconclusive: -43.2% |
| S=C1NCN(Cc2cccnc2)CN1 | inconclusive: 0.8% |

| Structure (SMILES) | inhibition |
| --- | --- |
| O=C(O)c1ccc(N/N=C/c2cccc(F)c2)cc1 | inactive: -0.8% |
| COc1ccccc1CCC(=O)N(C)CC(=O)Nc1ccc(Cl)c(C(F)(F)F)c1 | inactive: -3.7% |
| CC1=C(C(=O)Nc2ccccc2)C(c2ccc(O)cc2)N2C(=O)CSC2=N1 (stereo not given) | inactive: 1% |
| Clc1ccccc1C1=NCc2nncn2-c2sc(Br)cc21 | inconclusive: -7% |
| CCN1CCN(C(=O)c2cc(S(=O)(=O)N3CC(C)CC(C)C3)ccc2Cl)CC1 (stereo not given) | inconclusive: 17.2% |
| CC1SC(c2ccc(F)cc2)NC1=O (stereo not given) | inactive: -2.5% |
| O=C(Nc1ccnn1C1CCN(C(=O)c2cnsn2)CC1)c1cccc(F)c1 | inactive: -6.5% |
| COC(=O)c1ccc(COC(=O)CSCC(=O)Nc2ccc(C)cc2C)cc1 | inconclusive: 2.4% |
| O=[N+]([O-])c1c(NCCO)cc(N2CCCCCC2)c2nonc12 | active: 100% |
| CSc1ccc(/C=C(\NC(=O)c2ccccc2)C(=O)NN)cc1 | inconclusive: 1.5% |
| Cn1c(/C=C(\C#N)C(N)=S)ccc1-c1ccc(Br)cc1 | active: 32.1% |
| CCNc1nc(NCC)n2c(SCC(=O)Nc3c(C)cccc3C)nnc2n1 | inconclusive: 3% |
| COc1ccc(S(=O)(=O)N2CCOCC2)cc1NC(=O)CCNC(=O)c1ccc([N+](=O)[O-])cc1 | inactive: -8.3% |
| CC(OC(=O)c1ncc(Cl)c(Cl)c1Cl)C(=O)NC1(C#N)CCCCC1 (stereo not given) | inconclusive: -0.5% |
| Nc1cc2c(cc1Cl)-c1ccc([N+](=O)[O-])cc1C2=NO | inconclusive: -4.3% |
| CCOC(=O)c1cc2sccc2n1CC(=O)c1ccc2c(c1)OCCO2 | inconclusive: -137% |
| O=Nc1c2cc3ccccc3[nH]c-2c2ccccc12 | inactive: -5.4% |
| CN(CC(=O)Nc1c(Cl)cccc1Cl)C(=O)c1cc(S(=O)(=O)N(C)C)ccc1N1CCCC1 | inconclusive: 4% |
| Cc1csc(NC(=O)c2cnccn2)n1 | inconclusive: 40.3% |
| Cc1ccc(S(=O)(=O)Nc2cc(-c3nn(C)c(=O)c4ccccc34)ccc2N2CCOCC2)cc1 | inactive: -3.8% |
